Data: PubChem BioAssay AID360 (National Center for Advancing Translational Sciences (NCATS), 2006)
Among all 48,000 compounds or so, about 550 (1.1%) were called active. Roughly 4% stayed inconclusive and do not appear here. Rule as the data show it: active = potency below about 15 µM; inconclusive = mostly about 16 µM to 33 µM; inactive = weaker than that. Some of the results follow.

The compounds below were run against Lysosomal acid glucosylceramidase (Homo sapiens) (UniProt P04062) (assay: Glucocerebrosidase). Settings: purified enzyme, resorufin glucoside fluorescence (screen aimed at inhibitors), 20 min; series mostly up to 77 µM.
In short: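 Compounds titrated against 0.2 nM normal enzyme, 30 uM resorufin beta-D-glucopyranoside substrate, citrate/phosphate buffer with taurocholate and tween-20, pH 5.9. Reaction ran 20 min at room temperature; fluorescence (Ex 548/Em 600) gave AC50.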
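Also: the screen sought inhibitors.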
Potency is read from the fitted curve at half-maximal effect.

Sequence of UniProt P04062 (P04062 whole entry, looked up): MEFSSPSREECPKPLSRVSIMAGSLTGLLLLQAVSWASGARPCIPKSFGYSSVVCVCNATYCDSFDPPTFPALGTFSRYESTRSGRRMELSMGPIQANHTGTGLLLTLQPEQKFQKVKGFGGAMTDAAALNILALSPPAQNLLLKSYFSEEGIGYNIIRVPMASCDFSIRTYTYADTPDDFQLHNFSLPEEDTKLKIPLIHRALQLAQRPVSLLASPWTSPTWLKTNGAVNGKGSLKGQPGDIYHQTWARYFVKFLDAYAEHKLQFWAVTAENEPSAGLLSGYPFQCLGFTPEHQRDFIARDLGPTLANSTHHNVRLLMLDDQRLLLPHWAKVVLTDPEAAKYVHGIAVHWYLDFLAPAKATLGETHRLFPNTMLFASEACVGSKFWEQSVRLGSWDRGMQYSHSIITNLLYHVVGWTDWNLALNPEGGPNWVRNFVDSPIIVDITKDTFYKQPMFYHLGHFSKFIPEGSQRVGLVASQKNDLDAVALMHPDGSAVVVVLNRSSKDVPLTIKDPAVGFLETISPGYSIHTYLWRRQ

SMILES	Potency
CN1C=CC=C/C1=C(\C#N)c1nc2ccccc2[nH]1	inactive: > 76.9 µM
COC(=O)C1=C(C)N(c2cccc(C(C)=O)c2)C(=O)C1	inactive: > 76.9 µM
O=C(NCC1CCCO1)c1csc2c1CCCCC2 (stereo unspecified)	inactive: > 76.9 µM
CC1(C)Oc2ccc(C(=O)N3CCc4ccccc43)cc2N(CC(=O)N2CCCC2)C1=O	inactive: > 76.9 µM
Cc1cc(C(=O)NCCCc2ccccc2)no1	inactive: > 76.9 µM
COc1ccc2[nH]c(=O)c(CN(Cc3nnnn3Cc3ccc(F)cc3)CC3CCCO3)cc2c1 (stereo unspecified)	inactive: > 76.9 µM
CCOC(=O)C1CCN(C(=O)CCn2c(=O)[nH]c3ccccc3c2=O)CC1	inactive: > 76.9 µM
CN1CCN(C(=O)c2ccc3c(c2)NC(=O)C(N2CCOCC2)S3)CC1 (stereo unspecified)	inactive: > 76.9 µM
O=S(=O)(c1cccc(-n2cnnn2)c1)N1CCOCC1	inactive: > 76.9 µM
O=S(=O)(c1ccc(F)cc1)N1CCC(N2CCN(c3ccccc3)CC2)CC1	inactive: > 76.9 µM
COc1ccc2cc(C(c3nnnn3CCc3ccccc3)N3CCC(O)CC3)c(=O)[nH]c2c1 (stereo unspecified)	inactive
COC(=O)c1ccc2[nH]c(C)cc(=O)c2c1	inactive: > 76.9 µM
COC(=O)c1c(C)n(-c2ccc(OC)cc2)c2ccc(O)cc12	inactive: > 76.9 µM
Cc1cccc2cc(CN(CCCO)C(=O)Nc3ccccc3Cl)c(=O)[nH]c12	inactive: > 76.9 µM
COc1ccc(CC(=O)OCn2nnc3ccccc3c2=O)cc1	inactive: > 76.9 µM
COc1ccc(OC)c(NC(=O)CSc2nnc(Cc3cccn3C)n2CCc2ccccc2)c1	inactive: > 76.9 µM
NC(=O)c1cc(N)ccc1N1CCCC1	inactive: > 76.9 µM
Cc1sc2ncn(CC(=O)OCC(=O)NC(C)(C)C)c(=O)c2c1C	inactive: > 76.9 µM
O=C(Cn1cnc2scc(-c3ccccc3)c2c1=O)N1CCOCC1	inactive: > 76.9 µM
Cc1c(Cl)cccc1-n1nnnc1-c1cccs1	inactive: > 76.9 µM
Cc1c(NC(=O)Cn2nc(C(F)(F)F)c3c2CCCC3)c(=O)n(-c2ccccc2)n1C	inactive: > 76.9 µM
Cc1ccc2c(c1)N(CC(=O)NCc1cccs1)C(=O)CO2	inactive: > 76.9 µM
CCOC(=O)C1CCCN(C(=O)c2cn(CC)c(=O)c3cc(OC)c(OC)cc23)C1 (stereo unspecified)	inactive: > 76.9 µM

SMILES	Potency
COC(=O)C(O)(NC(=O)NC(C)=O)C(F)(F)F (stereo unspecified)	inactive: > 76.9 µM
COc1ccc(Cn2nnnc2C(c2cc3cc(C)ccc3[nH]c2=O)N2CCOCC2)cc1 (stereo unspecified)	inactive: > 76.9 µM
CCCCOc1ccccc1Cn1c(=O)oc2ccc(C)cc21	inactive: > 76.9 µM
CC1CC(C)(C)CC2(C1)NC(=O)N(CC(=O)NCC(c1ccco1)N1CCCCC1)C2=O (stereo unspecified)	inactive: > 76.9 µM
O=C1SC(SCc2ccccc2)=N/C1=C\c1ccco1	inactive: > 76.9 µM
CC(C)c1nc2sc3c(NCc4ccco4)ncnc3c2c2c1COC(C)(C)C2	inactive: > 76.9 µM
O=C(CSc1nnc(C2COc3ccccc3O2)o1)N1CCCc2ccccc21 (stereo unspecified)	inactive: > 76.9 µM
CCC(OC(=O)c1cc2sccc2n1C)C(=O)NCc1ccco1 (stereo unspecified)	inactive: > 76.9 µM
COc1cc(NC(=O)CN2CCN(c3ccccc3F)CC2)cc(OC)c1	inactive: > 76.9 µM
CCOc1ccc(C(=O)N2CCCC2)cc1OC	inactive: > 76.9 µM
C=CCN=C(NC#N)SCC(=O)NCc1ccccc1	inactive: > 76.9 µM
COCCN(C(C)=O)c1nnc(-c2cnccn2)s1	inactive: > 76.9 µM
Fc1ccccc1N1CCN(c2ncnc3[nH]ncc23)CC1	inactive: > 76.9 µM
CC(C)NC(=O)Cn1nnc(-c2ccc(Cl)cc2)n1	inactive: > 76.9 µM
Cc1ccc2c(c1)N(CCC(=O)NCc1ccco1)C(=O)CO2	inactive: > 76.9 µM
Cc1ccc(Nc2cc(=O)n(C3CCCCC3)c(=O)[nH]2)cc1C	inactive: > 76.9 µM
CCc1ccc(CCC(=O)Nc2nnc(C)s2)o1	inactive: > 76.9 µM
Cc1cc(C(=O)OCc2nnc(-c3ccccc3)o2)c(C)n1-c1ccccc1	inactive: > 76.9 µM
CCc1ccc(-c2nc(CN3CCC(C(=O)NCc4ccc(F)cc4)CC3)c(C)o2)cc1	inactive: > 76.9 µM
O=S(=O)(Cc1ccccc1)N1CCN(C2Cc3ccccc3C2)CC1	inactive: > 76.9 µM
CCOC(=O)c1cnc(SCC(=O)NCc2ccco2)nc1N	inactive: > 76.9 µM
COC(=O)C1=C(C)N(C2CCCC2)C(=O)C1(NC(C)=O)C(F)(F)F (stereo unspecified)	inactive: > 76.9 µM
Nc1nc(-c2ccccc2)cc(-c2ccccc2O)n1	inactive: > 76.9 µM

SMILES	Potency
COc1ccc(S(=O)(=O)N(C)CC(=O)Nc2cccc(C(C)=O)c2)cc1	inactive: > 76.9 µM
CCOC(=O)N1CCC(NC(=O)C2CCN(c3ccc(N4CCOCC4)nn3)CC2)CC1	inactive
Nc1nc(-c2ccccc2)cc(C(F)(F)F)n1	inactive: > 76.9 µM
CC(C)c1nc2oc3c(NCc4cccnc4)ncnc3c2c2c1CCC2	inactive: > 76.9 µM
CN(CCc1ccccn1)Cc1ccc(Cl)cc1	inactive: > 76.9 µM
CCOCCCNC(=O)c1ccccc1Br	inactive: > 76.9 µM
Cn1c(=O)[nH]c(=O)c2[nH]c(N(Cc3ccccc3)Cc3ccccc3)nc21	inactive: > 76.9 µM
CC(=O)NC(CCS(C)(=O)=O)C(=O)Nc1ccccc1Cl (stereo unspecified)	inactive: > 76.9 µM
Cc1c(C(=O)O)oc2ccc(S(=O)(=O)N(CC(C)C)CC(C)C)cc12	inactive: > 76.9 µM
COc1ccc(CSc2nnc(N)s2)cc1F	inactive: > 76.9 µM
O=C(O)CSc1nnc(Cc2ccccc2)n1-c1ccccc1	inactive: > 76.9 µM
Cc1cc(S(=O)(=O)N(Cc2ccccc2)Cc2ccc(N(C)C)cc2)ccc1-n1cnnn1	active: 8.48 µM
Cc1nnc(SCc2ccc(C(=O)c3ccc(Cl)cc3)o2)n1-c1ccccc1	inactive: > 76.9 µM
CC(=O)Nc1cccc(NC(=O)C2CCCN2C(=O)Nc2cccc(C)c2)c1 (stereo unspecified)	inactive: > 76.9 µM
O=C(NC1CCCCC1)n1c(=O)oc2ccccc21	inactive: > 76.9 µM
N#Cc1cccc(NC(=O)CSc2ccccc2)c1	inactive: > 76.9 µM
O=C(Nc1cnccn1)c1csc2ccccc12	inactive: > 76.9 µM
COC(=O)c1ccc(C(=O)OC)c(NC(=O)COC(=O)C23CC4CC(CC(O)(C4)C2)C3)c1	inactive: > 76.9 µM
COc1ccc(-n2nnnc2SCC(=O)N2C(C)CCCC2C)c(OC)c1 (stereo unspecified)	inactive: > 76.9 µM
COCCNC(=O)NC1(C(F)(F)F)Oc2ccc(Cl)cc2O1 (stereo unspecified)	inactive
C/C(Cl)=C\Cn1c(NCCCn2ccnc2)nc2c1c(=O)n(C)c(=O)n2C	inactive: > 76.9 µM
COc1ccccc1-c1nc(C#N)c(N2CCN(C(c3ccccc3)c3ccccc3)CC2)o1	inactive: > 76.9 µM
N#CCCn1c(SCC(=O)NCCc2ccc(F)cc2)nc2ccccc21	inactive: > 76.9 µM

SMILES	Potency
CN1CCN(CC(=O)Nc2c(C(=O)C3CC3)oc3ccccc23)CC1	inactive: > 76.9 µM
COc1ccc(N2CCN(C(=O)c3cn(C4CCCC4)c(=O)c4c3c3ccccc3n4C)CC2)cc1	inactive: > 76.9 µM
Cc1ccc(-n2nc(C)c(C3C(C#N)=C(N)OC4=C3C(=O)CC(C)(C)C4)c2Cl)cc1 (stereo unspecified)	active: 4.79 µM
COc1cccc(Cn2c(-c3nonc3N)nc3ccccc32)c1	inactive: > 76.9 µM
COC(=O)C1=C(C)NC(=O)C1(NC(=O)CN1CCCC1=O)C(F)(F)F (stereo unspecified)	inactive: > 76.9 µM
Cc1c(Nc2nc3ccccc3nc2NS(=O)(=O)c2ccccc2)c(=O)n(-c2ccccc2)n1C	inactive: > 76.9 µM
Cc1ccc(C)c(C(=O)CCC(=O)Nc2cccnc2)c1	inactive: > 76.9 µM
N#CCSc1nc2[nH]ncc2c(=O)n1-c1ccccc1Br	inactive: > 76.9 µM
N#CC(=C1CCCC1)c1nc(-c2ccccc2O)cs1	inactive: > 76.9 µM
CCc1ccccc1N(CC)C(=O)c1cn(CC)c(=O)c2cc(OC)c(OC)cc12	inactive: > 76.9 µM
O=C(CSCc1ccccc1)N1CCN(Cc2ccc3c(c2)OCO3)CC1	inactive: > 76.9 µM
CCO/C(C)=N/n1c2nc3ccccc3nc2c2c(=O)n(C3CCCC3)c(C)nc21	inactive: > 76.9 µM
Cc1ccc(C)c(S(=O)(=O)NCc2cccnc2)c1	inactive: > 76.9 µM
Cc1nnc(SCC(=O)Nc2ccc(Oc3ccccc3)cc2)n1N	inactive: > 76.9 µM
CC(C(=O)O)C1SC(=O)NC1=O (stereo unspecified)	inactive: > 76.9 µM
CCOC(=O)CSc1nnc(-c2cccs2)n1-c1ccccc1	inactive: > 76.9 µM
CSCC[C@H](NC(=O)Nc1cccc(C(F)(F)F)c1)C(=O)O	inactive: > 76.9 µM
CCN(CC)c1ccc(-c2nn3c(-c4ccccc4OC)nnc3s2)cc1	inactive: > 76.9 µM
Cc1ccc2[nH]c(=O)c(CN(CCCO)S(=O)(=O)c3c(C)ccc4nsnc34)cc2c1	inactive: > 76.9 µM
CCCOC(=O)CSc1nc(N)c(C#N)c(CC)c1C#N	inactive: > 76.9 µM
CC(C)(CN=C1NS(=O)(=O)c2ccccc21)CNC(=O)CN1C(=O)c2ccccc2C1=O	inactive: > 76.9 µM
Cc1ccccc1NC(=O)Cn1cnc2c(oc3ccccc32)c1=O	inactive
